Hit rate of the full screen: of about 310,000 compounds, about 2,200 (0.71%) showed an effect of 50% or more. The effect is printed as a negative number. The list shows a part of the results.

The assay deals with human ether-à-go-go-related gene (hERG) potassium channel (human, UniProt Q12809). Description: primary screen, population patch clamp on CHO cells stably expressing hERG.
Sequence of human ether-à-go-go-related gene (hERG) potassium channel (Q12809 whole entry, looked up): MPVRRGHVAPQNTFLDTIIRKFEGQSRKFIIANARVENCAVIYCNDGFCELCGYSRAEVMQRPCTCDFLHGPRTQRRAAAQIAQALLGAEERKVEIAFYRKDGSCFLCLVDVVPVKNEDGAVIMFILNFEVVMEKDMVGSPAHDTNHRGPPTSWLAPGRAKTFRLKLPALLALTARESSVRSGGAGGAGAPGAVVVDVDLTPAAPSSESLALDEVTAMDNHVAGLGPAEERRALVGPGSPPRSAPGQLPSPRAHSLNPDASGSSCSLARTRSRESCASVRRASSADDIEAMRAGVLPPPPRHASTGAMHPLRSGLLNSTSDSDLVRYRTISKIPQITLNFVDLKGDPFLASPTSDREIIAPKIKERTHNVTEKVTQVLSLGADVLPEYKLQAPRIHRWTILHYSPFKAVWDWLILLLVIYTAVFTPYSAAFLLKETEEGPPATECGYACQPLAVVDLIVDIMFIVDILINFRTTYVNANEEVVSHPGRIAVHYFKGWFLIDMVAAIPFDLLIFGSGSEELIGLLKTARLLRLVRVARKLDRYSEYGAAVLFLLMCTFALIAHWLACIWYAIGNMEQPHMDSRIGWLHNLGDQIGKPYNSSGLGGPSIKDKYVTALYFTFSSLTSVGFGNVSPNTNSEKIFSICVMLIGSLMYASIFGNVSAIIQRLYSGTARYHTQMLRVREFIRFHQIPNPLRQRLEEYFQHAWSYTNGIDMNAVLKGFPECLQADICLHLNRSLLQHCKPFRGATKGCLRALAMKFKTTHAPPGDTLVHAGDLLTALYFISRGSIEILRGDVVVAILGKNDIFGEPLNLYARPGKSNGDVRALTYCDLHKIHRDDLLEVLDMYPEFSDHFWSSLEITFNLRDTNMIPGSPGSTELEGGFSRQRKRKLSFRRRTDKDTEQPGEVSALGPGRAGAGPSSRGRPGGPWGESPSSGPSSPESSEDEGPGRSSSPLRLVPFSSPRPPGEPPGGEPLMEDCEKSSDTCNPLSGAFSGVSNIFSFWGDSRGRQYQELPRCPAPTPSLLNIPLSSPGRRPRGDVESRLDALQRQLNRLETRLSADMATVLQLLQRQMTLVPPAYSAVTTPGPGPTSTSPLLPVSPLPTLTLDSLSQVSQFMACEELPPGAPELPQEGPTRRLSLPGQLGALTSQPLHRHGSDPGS
On to `Cc1nn(C)cc1CN(C)Cc1ccc(OCC(O)CN2CCCCC2)cc1` (stereo not shown), for which the “hERG current change (%, negative = inhibition) at 1uM” value is 0.849%.

`O=C(NCc1ccc(F)cc1)C(C(=O)NCc1ccc(F)cc1)c1ncc(C(F)(F)F)cc1Cl`: the “hERG current change (%, negative = inhibition) at 1uM” value is 6.17%. With `COc1cccc([C@@]2(O)CCCC[C@@H]2CN(C)C)c1.Cl` the figure was 15.7%; with `Cc1ccc(N(CC(=O)NCCSc2ccccn2)S(C)(=O)=O)cc1`, 11.7%. Under `COc1ccc2oc(=O)c(C(=O)OCc3ccccc3)cc2c1` stands 13.9%.

As for `CS(=O)(=O)N(CC(=O)NCCSCc1cccc(Cl)c1)c1ccc2c(c1)OCO2`, the “hERG current change (%, negative = inhibition) at 1uM” value was determined as 9.95%.

`O=C(CCc1n[nH]c(=O)[nH]c1=O)N1CCCCC1`: the “hERG current change (%, negative = inhibition) at 1uM” value amounted to 10.1%. With `COc1ccc2c(C)cc(SCC(=O)Nc3ccc(Cl)cn3)nc2c1` the figure was 8.18%; with `Cc1cc(OCC(=O)Nc2ncn[nH]2)ccc1Cl`, 11.2%.

`O=S(=O)(NCc1ccccc1)c1ccc(Br)c2nsnc12`: the “hERG current change (%, negative = inhibition) at 1uM” value worked out at 10.5%. Consider `Brc1ccc(NCc2cccc3ccccc23)nc1`, for which the “hERG current change (%, negative = inhibition) at 1uM” value turned out to be 14.4%. Under `CC1CC(Nc2ccccc2)c2ccccc2N1C(=O)c1ccccc1F` (stereo not shown) stands 14.1%; under `CCc1ccc(C(c2c(C)nn(-c3ccccc3)c2N)c2c(C)nn(-c3ccccc3)c2N)cc1`, 0.152%. Under `CNS(=O)(=O)c1cccc(C(=O)OCC(=O)NC2CCCC2)c1` stands 12.1%; under `Cc1cc(C)n(S(=O)(=O)c2ccccc2)n1`, 3.01%. Take `O=C(CNCc1ccc(F)cc1)Nc1ccc(S(=O)(=O)N2CCOCC2)cc1`: the “hERG current change (%, negative = inhibition) at 1uM” value is 5.06%.

In the case of `C/C(=C\COc1ccc2ccc(=O)oc2c1)CC[C@@H](O)C(C)(C)O`, the “hERG current change (%, negative = inhibition) at 1uM” value turned out to be 14.5%. For `O=C(O)c1ccccc1C(=O)Nc1ccc(-n2nc(C(F)(F)F)cc2C(F)(F)F)cc1`, the “hERG current change (%, negative = inhibition) at 1uM” value was determined as 8.59%. Take `C=CCn1c(=O)c2ccccc2n2c(SCc3cc(=O)n4ccsc4n3)nnc12`: the “hERG current change (%, negative = inhibition) at 1uM” value worked out at 4.25%. With `CCOc1ccc(C2Oc3nc(SC)nnc3-c3ccccc3N2C(C)=O)cc1OC` (stereo not shown), the “hERG current change (%, negative = inhibition) at 1uM” value turned out to be 11.4%. Under `O=C(Nc1ccccc1)N(Cc1ccc2c(c1)OCO2)Cc1nc2ccccc2c(=O)[nH]1` stands 3.08%; under `CCOC(=O)c1c(C)[nH]c(C)c1C(=O)CSc1nc2ccccc2c(=O)n1-c1ccc(Cl)cc1`, 9.38%. In the case of `COc1cc(NC(=O)Cn2cnc(S(=O)(=O)N3CCOCC3)c2)cc(OC)c1OC`, the “hERG current change (%, negative = inhibition) at 1uM” value is recorded as 11.1%. With `CSCCC(NS(=O)(=O)c1ccccc1)C(=O)OCc1nc2ccsc2c(=O)[nH]1` (stereo not shown) the figure was 1.15%; with `OC(COc1ccc(OCc2ccccc2)cc1)CN1CCOCC1` (stereo not shown), -12.3%; with `CCc1ccc(NC(=O)C2CCN(S(=O)(=O)c3cnc[nH]3)CC2)cc1`, 18.5%. Under `Cc1noc(NS(=O)(=O)c2ccc(NC(=O)CCC3CCCCC3)cc2)c1C` stands 10.1%; under `O=[N+]([O-])c1cc(Cl)ccc1N1CCN(c2ccccc2O)CC1`, 12.2%. In the case of `Cc1ccc(SC(=O)c2c(C)noc2-c2cc(C)on2)cc1`, the “hERG current change (%, negative = inhibition) at 1uM” value was 10.7%. Under `Cc1ccc2oc(-c3ccc(C)c(NC(=O)Cc4cccs4)c3)nc2c1` stands 0.0124%; under `Cc1cc(O)c(C(C)C)cc1N=C1CSC(=O)N1`, 11%; under `COC(=O)c1sc(-c2ccc(C(C)(C)C)cc2)cc1NC(=O)COCC(=O)O`, 10.3%. Under `O=C(CN1C(=O)C2CC=C(Cl)CC2C1=O)N1CCOCC1` (stereo not shown) stands -3.82%; under `CCOC(=O)c1ccccc1NC(=O)c1ccccc1NS(C)(=O)=O`, 2.08%. Consider `CC1=C(C(=O)OCc2ccccc2)C(c2ccco2)C2=C(CC(C)(C)CC2=O)N1` (stereo not shown), for which the “hERG current change (%, negative = inhibition) at 1uM” value was 3.17%.

In the case of `C#CCN1C(=O)C(O)(CC(=O)c2cccc(OC)c2)c2ccccc21` (stereo not shown), the “hERG current change (%, negative = inhibition) at 1uM” value is reported as 10.3%. Under `COc1cccc2c(=O)ccoc12` stands 6.57%; under `CC(C)Oc1c(N2CCOCC2)c(=O)c1=O`, 15.1%; under `CC(Oc1cccc(Cl)c1)C(=O)Nc1ccc(N2CCOCC2)cc1N1CCOCC1` (stereo not shown), 5.26%. Under `Nc1cccnc1Sc1cc(Cl)cc(Cl)c1` stands 4.33%. With `CC12CCC(C(=O)NNc3ccccc3)(OC1=O)C2(C)C` (stereo not shown) the figure was 12.2%; with `Cc1nnc(NC(=O)C2CCCC2)s1`, 13.3%. `Cc1ccccc1OCCn1nc(C(=O)O)c2ccccc2c1=O`: the “hERG current change (%, negative = inhibition) at 1uM” value came to 9.14%.

Turning to `CCOc1cccc2sc(N(CCN(CC)CC)C(=O)c3cccc(N4C(=O)CCC4=O)c3)nc12.Cl`, the “hERG current change (%, negative = inhibition) at 1uM” value is -45.6%. Under `Cc1cn2c(nc1=O)OC1C(O)C(COC(=O)c3ccccc3)OC12` (stereo not shown) stands 14.8%; under `COc1ccccc1CCn1cc(C#N)c(=O)[nH]c1=O`, 15.2%. Turning to `COc1cccc(-n2c(N)cc(=O)nc2SCC(=O)N2CCN(c3ccccc3)CC2)c1`, the “hERG current change (%, negative = inhibition) at 1uM” value is on record as 6.58%. As for `NC(=O)c1nsc(C(=O)N(CC(=O)NC2CCCC2)c2ccc(F)c(Cl)c2)c1N`, the “hERG current change (%, negative = inhibition) at 1uM” value came to 10.4%. Under `Cc1ccc(C2(c3noc(CN4CCOCC4)n3)CCCC2)cc1` stands 6.75%; under `COc1ccc(C(=S)N2CCOCC2)cc1OC(=O)c1ccc([N+](=O)[O-])cc1`, 5.41%. Consider `CCN(c1ccccc1)S(=O)(=O)c1ccc(Cl)c(NC(=O)CN2C(=O)NC3(CCCC3)C2=O)c1`, for which the “hERG current change (%, negative = inhibition) at 1uM” value turned out to be 11.8%. With `Cc1ccc(-n2nc3c(c2NC(=O)C2CCCC2)CS(=O)(=O)C3)cc1` the figure was 13.5%. Consider `Cn1c(O)c(C(=NCCN2CCCCC2)c2ccccc2Cl)c(=O)n(C)c1=O`, for which the “hERG current change (%, negative = inhibition) at 1uM” value is reported as 8.15%.

`O=C(c1ccc(COc2ccccc2Cl)o1)N1CCOCC1`: the “hERG current change (%, negative = inhibition) at 1uM” value is reported as 4.23%. With `Brc1ccc(-c2nnc3n2C2(CCCC2)Cc2ccccc2-3)o1` the figure was 0.695%; with `CC(C)(C)n1nnnc1C(c1cccs1)N1CCCc2ccccc21` (stereo not shown), -1.04%. Under `CCOc1ccc2oc(C(=O)N(C)CCc3ccc(OC)c(OC)c3)c(C)c2c1` stands 4.82%. For the molecule `CCCCN(C(=O)/C=C/c1ccco1)c1c(N)n(Cc2ccccc2)c(=O)[nH]c1=O`, the “hERG current change (%, negative = inhibition) at 1uM” value was 7.19%.

Turning to `Cc1cc(S(=O)(=O)NCC(C)C)ccc1OCC(=O)NCc1ccco1`, the “hERG current change (%, negative = inhibition) at 1uM” value is recorded as -35.8%. With `O=C(/C=C/c1ccccc1)NC(=S)NNC(=O)c1cccnc1` the figure was 17.6%. On to `CCN(C(=O)COC(=O)c1ccc(Cl)nc1)C1CCS(=O)(=O)C1` (stereo not shown), for which the “hERG current change (%, negative = inhibition) at 1uM” value is 12.1%. Turning to `Cc1ccc(NC(=S)Nc2ccc(Cl)c(Cl)c2)c(OC(F)F)c1`, the “hERG current change (%, negative = inhibition) at 1uM” value was 13.8%. For the molecule `O=C(Nc1cccc(/C=C/c2ccccn2)c1)c1cc(Cl)ccn1`, the “hERG current change (%, negative = inhibition) at 1uM” value was found to be 8.27%.

Consider `CC(=O)Nc1ccc(NC(=O)CSc2ncnc3c2cnn3Cc2ccccc2)cc1`, for which the “hERG current change (%, negative = inhibition) at 1uM” value was found to be 6.3%. With `O=C(OCc1cccc(Cl)c1)c1cc([N+](=O)[O-])ccc1N1CCOCC1` the figure was -5.04%; with `COc1ccc(C2C(C(N)=O)=C(C)Nc3nc(-c4ccccc4)nn32)cc1OC` (stereo not shown), 12.1%.

For `CC12CN3CCN(C1)CC(C)(C3)C2=NN`, the “hERG current change (%, negative = inhibition) at 1uM” value was determined as 9.74%. Consider `CN(c1ccccc1)S(=O)(=O)c1ccc2c(c1)oc(=O)n2C`, for which the “hERG current change (%, negative = inhibition) at 1uM” value was determined as 13.3%.

Consider `O=C(COc1cccc2c1CCN(Cc1ccc(Cl)cc1)C2=O)N1CCOCC1`, for which the “hERG current change (%, negative = inhibition) at 1uM” value was -19.8%.

For `COCCN(C(=O)COC(=O)CCc1nc2ccccc2s1)c1c(N)n(Cc2ccccc2)c(=O)[nH]c1=O`, the “hERG current change (%, negative = inhibition) at 1uM” value was 9.84%. Under `Cc1cc(S(=O)(=O)NCc2ccco2)c(C)cc1Cl` stands 6.89%; under `CC(CCC(=O)Nc1nncs1)C(=O)O` (stereo not shown), 3.35%. With `C=CCNC(=O)C1CC(=O)N(c2ccc(OCC(=O)Nc3ccccc3)cc2)C1` (stereo not shown) the figure was 4.97%; with `Cc1ccc(-n2c3nc(=O)[nH]c(=O)c-3cc3cc([N+](=O)[O-])ccc32)cc1C`, -1.18%. In the case of `COc1cc(NS(=O)(=O)c2ccc(NC(=O)COc3ccc(C)cc3C)cc2)nc(OC)n1`, the “hERG current change (%, negative = inhibition) at 1uM” value is on record as -1.76%. With `Cc1cccc(NC(=O)CCc2nc3sc4c(c3c(=O)[nH]2)CCCC4)n1`, the “hERG current change (%, negative = inhibition) at 1uM” value stood at 1.39%. With `Cc1nnc(N2C(=O)c3cccc4c([N+](=O)[O-])ccc(c34)C2=O)s1`, the “hERG current change (%, negative = inhibition) at 1uM” value was found to be 9.77%.

Regarding `CC1CN(C(=O)CCC(=O)NCc2ccccc2Cl)c2ccccc2S1` (stereo not shown), the “hERG current change (%, negative = inhibition) at 1uM” value is 8.92%.

Turning to `CC(C)P(=O)(Cc1cccc(C#N)c1)C(C)C`, the “hERG current change (%, negative = inhibition) at 1uM” value amounted to 12%. `CC(C)OC(=O)CSc1nc(-c2ccc(F)cc2)cc(C(F)(F)F)n1`: the “hERG current change (%, negative = inhibition) at 1uM” value is recorded as 16.3%.

In the case of `O=C(CCc1ccc(S(=O)(=O)N2CCOCC2)cc1)NN=C1CCCCCCC1`, the “hERG current change (%, negative = inhibition) at 1uM” value is given as 10.4%. On to `Cc1ccc(S(=O)(=O)NNC(=O)CCC(=O)Nc2ccc(C)c(C)c2)cc1`, for which the “hERG current change (%, negative = inhibition) at 1uM” value came to 7.38%. On to `O=c1[nH]c(=S)n(C2CC2)c(O)c1C=Nc1cccc(C(F)(F)F)c1`, for which the “hERG current change (%, negative = inhibition) at 1uM” value was 16.3%.

With `CNC(=S)N1CCC(NC(=O)c2ccco2)CC1`, the “hERG current change (%, negative = inhibition) at 1uM” value is 5.49%. With `Cc1nnsc1S(=O)(=O)Cc1ccccc1C(F)(F)F` the figure was 10.8%; with `CC1(C)CC(=O)C/C(=N/NC(=O)C2CCN(S(=O)(=O)c3cccs3)CC2)C1`, 10.9%; with `CCOC(=O)c1sc2nc(C)nc(SC(C)C(=O)NC3CC3)c2c1C` (stereo not shown), 9.55%. Under `COc1cccc(C2CC(c3ccc(C)cc3)=NN2C(=O)c2ccccc2F)c1OC` (stereo not shown) stands 13.8%.
